Molecular target: T1, approximately 55 kDa protein derived from the human pancreatic cancer cell line PANC-1 (vimentin) (human, UniProt P08670)
T1 construct: Endogenous protein on Western blots of the PANC-1 insoluble (membrane) fraction; also called antigenic protein
Assay: Western blot of the PANC-1 insoluble fraction
Procedure: Each 10 μg of the proteins in the insoluble fraction after solubilization of the homogenate of the PANC-1 cell with the RIPA buffer was subjected to electrophoresis on 10% acrylamide gel. The protein was transferred from the gel to a PVDF membrane and the membrane was blocked. The transferred PVDF membrane was reacted with the purified γ-HoA. described in Example (13-7) at 37° C. for 1 hour. The PVDF membrane was washed with PBS-T. The resulting PVDF membrane was added with an HRP-conjugated goat antibody against a human antibody (1,000-fold dilution, CAPPEL) and further reacted at 37° C. for 1 hour.

T1 sequence (P08670 2-466 limits assumed): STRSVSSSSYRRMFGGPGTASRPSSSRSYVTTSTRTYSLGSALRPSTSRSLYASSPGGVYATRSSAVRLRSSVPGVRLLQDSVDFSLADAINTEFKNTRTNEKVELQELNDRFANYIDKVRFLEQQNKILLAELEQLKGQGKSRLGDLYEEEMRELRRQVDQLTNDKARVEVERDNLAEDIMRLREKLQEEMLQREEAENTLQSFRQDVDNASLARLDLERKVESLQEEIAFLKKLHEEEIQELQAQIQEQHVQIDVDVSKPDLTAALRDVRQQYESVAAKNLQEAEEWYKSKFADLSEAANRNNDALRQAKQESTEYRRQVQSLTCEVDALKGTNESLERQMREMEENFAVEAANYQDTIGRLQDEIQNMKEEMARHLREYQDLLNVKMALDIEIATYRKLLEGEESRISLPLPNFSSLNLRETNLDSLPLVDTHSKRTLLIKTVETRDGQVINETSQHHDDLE

B1: γ-HoA. (recombinant HoAKs-1 antibody) (antibody, V domains shown)
VH: EVQLVESGGGVVQPGRSLRLSCAASGFTFSSYAMHWVRQAPGKGLEWVAVISYDGSNKYYADSVKGRFTISRDNSKNTLYLQMNSLRAEDTAVYYCARDRHSYDFWSGSLDYWGQGTLVTVSS
VL: [about 100 residues not shown]
notes: Human IgG1 kappa recombinant antibody made in CHO cells; also called γ-HoA. antibody; HoAKs-1 recombinant antibody
B1: binds.

Reference: patent US20060088538A1 (MITSUBISHI PHARMA, published 2006)
